The RNAGym collection of RNA variant scans (doi:10.7554/elife.90254)
Read counts are not given, so values of variants with three or more changes are uncertain.

B1: OR4K15 (parent)
chain: GUUAACGGUCAUAGGCCAUGGAAACUAGGAGCACCAUUUCGCUGCCAGUGAAGAAAUGAACAAAGAAAAUCUGGGCCAGGCAGGCAUCAAAAGAAAUAGUCUUGCGCUCAACCAGAAAGUCUGUAAUCAUUUUAAGGGUA

Variants of: B1
Assay: self-cleavage, relative activity (ratio to wild type); higher = more cleavage; in vitro, sequencing; the parent is a self-cleaving ribozyme
For U19A U43A A47G A118G, the self-cleavage was 0.42.
Variant A18U A51U A54G has a self-cleavage of 1.4.
For U19C A24U U37C A56G U102C U122C U130C, the self-cleavage was 0.93.
U19A A33U A54G G74A gave a self-cleavage of 0.15.
U19A A22G A92G A117G A118U showed a self-cleavage of 1.73.
A18G U37C A52G A94G showed a self-cleavage of 1.64.
Work on A18U A51U A78U yielded a self-cleavage of 0.44.
In the case of U19C A95U A125U, the self-cleavage is reported as 1.38.
For A18U A51G A110C A126G, the self-cleavage was 0.12.
A18G U57C U103C gave a self-cleavage of 0.13.
Variant A18G A67G U100A has a self-cleavage of 0.59.
A18G U38C A92G U133C showed a self-cleavage of 1.93.
Variant A18G U100C A116G has a self-cleavage of 0.88.
In the case of A18G A64U U87A, the self-cleavage is reported as 1.1.
Work on U19C A24G A64G yielded a self-cleavage of 0.78.
With A18U G31A A33C U38C A82G the self-cleavage was 0.45.
Work on U19C A24G A47G A54G yielded a self-cleavage of 0.66.
U19C A54G A92G gave a self-cleavage of 0.9.
A18G A90G U100A A111G gave a self-cleavage of 0.02.
Work on A18U A90G U133C yielded a self-cleavage of 1.13.
With U19A A52G A69G the self-cleavage was 0.54.
With A18U A33G A82G A95G the self-cleavage was 0.53.
Variant A18U A117U A125G has a self-cleavage of 0.84.
With A18G U57C A66G A92G the self-cleavage was 0.61.
U19C A89G A90U gave a self-cleavage of 1.34.
In the case of A18G U43C A95C, the self-cleavage is reported as 0.36.
Variant A18U A116G A118G has a self-cleavage of 0.66.
In the case of U19A A56G A82G A89G A125G, the self-cleavage is reported as 0.09.
A18U C42A A47G A86G A117G showed a self-cleavage of 0.45.
For U19A G44A A118G U130C, the self-cleavage was 0.76.
U19A G79A C105G gave a self-cleavage of 0.01.
With A18G U70C A94G U103C the self-cleavage was 0.81.
With A18U G48A A60G A96G the self-cleavage was 1.45.
A18G A66U A98G C101A U124C gave a self-cleavage of 0.01.
In the case of A18G A64G A135G, the self-cleavage is reported as 1.18.
Work on A18U A54G A114G yielded a self-cleavage of 0.71.
In the case of U19A A36G U87C U102C U133C, the self-cleavage is reported as 2.73.
Work on A18U U102A A110G A116G yielded a self-cleavage of 0.
Variant U19C A62G A129G has a self-cleavage of 1.14.
For U19A U43C A68C A116G, the self-cleavage was 0.42.
For A18U A86U A89U, the self-cleavage was 0.
U19C A64G C77A A126G showed a self-cleavage of 0.72.
With A18G U49C A51U A91G U100C the self-cleavage was 1.5.
Work on U19C A33G A69G U87C yielded a self-cleavage of 0.59.
U19C A110U A111G showed a self-cleavage of 0.01.
Work on U19C A33G A86G yielded a self-cleavage of 0.69.
Variant A18G U19C U57C U124C has a self-cleavage of 0.63.
In the case of A18G A67G A69G A89G A125G, the self-cleavage is reported as 0.38.
Variant U19C G20A A51G A78C A111G has a self-cleavage of 0.04.
Variant U19C A89U A92G U100C A117G U120C has a self-cleavage of 0.6.
Work on A18U A64G A89G A92G yielded a self-cleavage of 1.51.
A18G A117G U131C gave a self-cleavage of 1.34.
U19C A51G U57G U127G showed a self-cleavage of 0.
For U19A A86G A96G, the self-cleavage was 0.42.
Variant A18U A64G U122C U131C has a self-cleavage of 1.25.
A18G U87C A111G A125U showed a self-cleavage of 0.01.
A18G A92G A126G A140G gave a self-cleavage of 0.44.
For A18G U100C A117G, the self-cleavage was 2.71.
Work on U19C A66G A94G yielded a self-cleavage of 1.9.
Work on A18G A67G A94G yielded a self-cleavage of 1.84.
For A18G A66G A111G A118G, the self-cleavage was 0.01.
In the case of A18G U19C U49A A63G U108A, the self-cleavage is reported as 0.14.
Variant A18U G28U A52G A62G A110G has a self-cleavage of 0.16.
A18G A95G A135U showed a self-cleavage of 1.75.
Variant A18U U39A A54G A66G U108C has a self-cleavage of 0.01.
U19A A52G U102C U130C A140G showed a self-cleavage of 1.9.
Work on U19C A64G A96U U122C yielded a self-cleavage of 1.48.
Variant U19C A60G A66G A90G U120A U132C has a self-cleavage of 0.3.
U19A G53U A89G gave a self-cleavage of 1.51.
With A18G A64U A92G A116G the self-cleavage was 1.06.
For A18G A114G A118U, the self-cleavage was 0.08.
A18U A24C A129G U131C showed a self-cleavage of 0.96.
Variant A18U A64G A91G U108C has a self-cleavage of 0.02.
A18U U108C U133C gave a self-cleavage of 0.
Variant A18U G50A A86G A116U C121U has a self-cleavage of 0.28.
Work on A18G A78U A126G yielded a self-cleavage of 0.17.
With U19A A67G U72C the self-cleavage was 0.17.
In the case of A18G U26C A56C U102C U124C, the self-cleavage is reported as 1.44.
In the case of A18U A82G U108C, the self-cleavage is reported as 0.01.
A18U A36G A129G showed a self-cleavage of 0.91.
Variant U19A A68G A96U has a self-cleavage of 1.42.
Variant A18G C32A A94G has a self-cleavage of 1.01.
U19C A59U A92G gave a self-cleavage of 2.03.
A18U A47U A59U A89G showed a self-cleavage of 0.58.
A18U A36U A51G A56G U130C showed a self-cleavage of 0.68.
A18G U43A U102C gave a self-cleavage of 1.17.
Work on U19C A22G A36G U70C A116G A117G A126G yielded a self-cleavage of 0.12.
For U19A A30U C32U, the self-cleavage was 1.25.
With A18G U37C A62G A66U the self-cleavage was 0.51.
U19A A47U A78G gave a self-cleavage of 0.21.
Work on A18U A51G A52G A92U A140G yielded a self-cleavage of 1.28.
U19C A82U A86G U108C A114U U133C showed a self-cleavage of 0.01.
U19C A52G A60G A69G showed a self-cleavage of 1.69.
U19C A47C A62G U108C gave a self-cleavage of 0.02.
A18G U70C A89G gave a self-cleavage of 0.62.
In the case of A18U A36U A78G A82G, the self-cleavage is reported as 0.1.
U19A A59G A126G showed a self-cleavage of 0.94.
Variant A18G U39C A91G A94U has a self-cleavage of 2.03.
In the case of A18G U49C U108A, the self-cleavage is reported as 0.02.
With A18U A62G A82G A117G the self-cleavage was 0.19.
Variant U19C A47G A55G has a self-cleavage of 1.48.
U19C A51C G75A A94G A110G gave a self-cleavage of 0.02.
With A18U A23G U100C the self-cleavage was 1.45.
For U19A A24G A55G, the self-cleavage was 1.81.
For U19C A23G U43C A52G A55G A63G U132G, the self-cleavage was 1.28.
Variant A18U A118G A125G has a self-cleavage of 0.05.
A18U A27U U108C U133C showed a self-cleavage of 0.
Variant U19A U49C A68G A86U U120C has a self-cleavage of 0.56.
In the case of A18G G80A A117G, the self-cleavage is reported as 0.4.
Variant U19C A68G C77U A82G has a self-cleavage of 1.29.
U19A A36G A67G U70C U131C gave a self-cleavage of 0.4.
Variant U19C A52G A59U has a self-cleavage of 1.36.
In the case of U19A A114U A117G, the self-cleavage is reported as 0.04.
U19A A24G A86G gave a self-cleavage of 0.52.
With U19A A33U U103C A114G the self-cleavage was 0.17.
A18U A66G U100A showed a self-cleavage of 0.48.
U19A A64G G74U U127G gave a self-cleavage of 0.17.
For A18G A94G C107A A126G, the self-cleavage was 0.01.
U19A A30U A60G A91G C113U showed a self-cleavage of 0.07.
In the case of A18U A56G A118C, the self-cleavage is reported as 0.67.
In the case of A18U A59G A96G U100C G136U, the self-cleavage is reported as 2.34.
Variant A18U A30G U108C has a self-cleavage of 0.02.
A18U A60G U103C showed a self-cleavage of 0.2.
Work on U19C A90G A92G U127A yielded a self-cleavage of 1.21.
Variant A18G U37C A66G A78U A96G has a self-cleavage of 0.18.
For U19C A51U A67G A90G, the self-cleavage was 0.38.
A18U U43C A47G U103C showed a self-cleavage of 0.44.
U19A U49C A59G showed a self-cleavage of 1.28.
Variant A18U A51C A62U A67G has a self-cleavage of 1.07.
A18G U37C A89U A98G gave a self-cleavage of 1.02.
In the case of U19C A23G C25G A55C A90G A110G A116G U139C, the self-cleavage is reported as 0.01.
In the case of U19A A67U U108C U124C, the self-cleavage is reported as 0.
U19C A52U G58U A82U A116G gave a self-cleavage of 0.07.
A18U U37C A55G A68G U108C U124A showed a self-cleavage of 0.02.
A18U A67G U122C gave a self-cleavage of 1.55.
Work on A18U U39C A90G yielded a self-cleavage of 1.09.
Variant A18U C42G A96G has a self-cleavage of 1.75.
U19C A67G A116G gave a self-cleavage of 0.41.
Variant U19A C76U A140G has a self-cleavage of 0.19.
U19A A30U A33G U87C gave a self-cleavage of 0.24.
A18G U72C A116U showed a self-cleavage of 0.03.
In the case of U19A A69G A91G, the self-cleavage is reported as 0.65.
U19C A22G U57C U127G gave a self-cleavage of 0.52.
For A18U U37C A125G, the self-cleavage was 0.79.
A18G A64G U70C showed a self-cleavage of 0.61.
In the case of U19C A54G U87C A95G U100C U131C, the self-cleavage is reported as 1.03.
In the case of A18G A110G U131C, the self-cleavage is reported as 0.05.
Work on U19C A59U G65A U70A yielded a self-cleavage of 1.11.
U19C A23G G58U showed a self-cleavage of 1.02.
Variant A18G A94C A118G U124A has a self-cleavage of 0.74.
Variant A18G U108C A118U has a self-cleavage of 0.01.
U19C A111G G115U A129G gave a self-cleavage of 0.
Variant U19C A51G G74A C113U has a self-cleavage of 0.05.
For A18G U37C C45U U87C, the self-cleavage was 1.08.
Work on U19C A47G A52U U87C yielded a self-cleavage of 0.98.
In the case of A18U A52G U120C U127C U130C, the self-cleavage is reported as 0.36.
A18U A51G A90G showed a self-cleavage of 0.91.
Variant A18U A30G A96U A117G has a self-cleavage of 2.27.
Variant A18U A60G U108C has a self-cleavage of 0.01.
U19A A62G U72A U108C A114U gave a self-cleavage of 0.
U19C C35U A56C A82G U108A A116G A118G U139A A140U gave a self-cleavage of 0.
A18U U26G U38C A52U A95G A114U showed a self-cleavage of 0.12.
U19A A91G A117G gave a self-cleavage of 1.39.
Work on A18U A92G U130C U132C yielded a self-cleavage of 1.05.
U19C A55G U122C showed a self-cleavage of 2.05.
In the case of A18G G20C U120C, the self-cleavage is reported as 0.29.
A18U A30G U49G A82G showed a self-cleavage of 0.48.
